# According to the supplement of paper PMC8728848:
# This is one part of the list.
# B1: CVN (Nostoc ellipsosporum), P81180 (protein)
# chain: LGKFSQTCYNSAIQGSVLTSTCERTNGGYNTSSIDLNSVIENVDGSLKWQPSNFIETCRNTQLAGSSELAAECKTRAQQFVSTKINLDDHIANIDGTLKYE
# Tests used:
# Assay in all cases: glycan array binding signal (z-score within array); higher = stronger binding
# Details in all cases: glycan notation: IUPAC condensed, linker removed
# [1] = target: Fuc(a1-2)[GalNAc(a1-3)]Gal(b1-4)Glc
# Procedure, shortened: (§1)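 The binding signal is a Z-score computed within each array and averaged over linkers. Arrays of the same protein sequence at different concentrations or buffers were also averaged together. Data originate from 3228 arrays in the Consortium for Functional Glycomics database, kept only where the protein sequence was available.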
# [2] = target: Fuc(a1-2)[GalNAc(a1-3)]Gal(b1-4)GlcNAc
# Procedure, shortened: as §1
# [3] = target: Fuc(a1-2)[GalNAc(a1-3)]Gal(b1-4)GlcNAc(b1-2)Man(a1-3)[Fuc(a1-2)[GalNAc(a1-3)]Gal(b1-4)GlcNAc(b1-2)Man(a1-6)]Man(b1-4)GlcNAc(b1-4)GlcNAc
# Procedure, shortened: as §1
# [4] = target: Fuc(a1-2)[GalNAc(a1-3)]Gal(b1-4)GlcNAc(b1-2)Man(a1-3)[Fuc(a1-2)[GalNAc(a1-3)]Gal(b1-4)GlcNAc(b1-2)Man(a1-6)]Man(b1-4)GlcNAc(b1-4)[Fuc(a1-6)]GlcNAc
# Procedure, shortened: as §1
# [5] = target: Fuc(a1-2)[GalNAc(a1-3)]Gal(b1-4)GlcNAc(b1-3)Gal(b1-4)GlcNAc
# Procedure, shortened: as §1
# [6] = target: Fuc(a1-2)[GalNAc(a1-3)]Gal(b1-4)GlcNAc(b1-3)Gal(b1-4)GlcNAc(b1-3)Gal(b1-4)GlcNAc
# Procedure, shortened: as §1
# [7] = target: Fuc(a1-2)[GalNAc(a1-3)]Gal(b1-4)GlcNAc(b1-3)GalNAc
# Procedure, shortened: as §1
# [8] = target: Fuc(a1-2)[GalNAc(a1-3)]Gal(b1-4)[Fuc(a1-3)]GlcNAc
# Procedure, shortened: as §1
# [9] = target: Fuc(a1-2)[GalNAc(a1-3)]Gal(b1-4)[Fuc(a1-3)]GlcNAc(b1-3)GalNAc
# Procedure, shortened: as §1
# [10] = target: Fuc(a1-2)[GalNAc(a1-4)]Gal(b1-4)GlcNAc
# Procedure, shortened: as §1
# [11] = target: Fuc(a1-2)[GalNAc(b1-3)]Gal
# Procedure, shortened: as §1
# Fuc(a1-3)GlcNAc = target: Fuc(a1-3)GlcNAc
# Procedure, shortened: as §1
# [12] = target: Fuc(a1-3)[Gal(b1-4)]Glc6S
# Procedure, shortened: as §1
# [13] = target: Fuc(a1-3)[Gal(b1-4)]GlcNAc
# Procedure, shortened: as §1
# [14] = target: Fuc(a1-3)[Gal(b1-4)]GlcNAc(b1-2)Man(a1-3)[Fuc(a1-3)[Gal(b1-4)]GlcNAc(b1-2)Man(a1-6)]Man(b1-4)GlcNAc(b1-4)GlcNAc
# Procedure, shortened: as §1
# [15] = target: Fuc(a1-3)[Gal(b1-4)]GlcNAc(b1-2)Man(a1-3)[Fuc(a1-3)[Gal(b1-4)]GlcNAc(b1-2)Man(a1-6)]Man(b1-4)GlcNAc(b1-4)[Fuc(a1-6)]GlcNAc
# Procedure, shortened: as §1
# [16] = target: Fuc(a1-3)[Gal(b1-4)]GlcNAc(b1-3)Gal(b1-3)[Fuc(a1-4)]GlcNAc
# Procedure, shortened: as §1
# [17] = target: Fuc(a1-3)[Gal(b1-4)]GlcNAc(b1-3)GalNAc
# Procedure, shortened: as §1
# [18] = target: Fuc(a1-3)[Gal(b1-4)]GlcNAc(b1-4)Gal(b1-4)[Fuc(a1-3)]GlcNAc
# Procedure, shortened: as §1
# [19] = target: Fuc(a1-3)[Gal(b1-4)]GlcNAc(b1-4)Gal(b1-4)[Fuc(a1-3)]GlcNAc(b1-4)Gal(b1-4)[Fuc(a1-3)]GlcNAc
# Procedure, shortened: as §1
# [20] = target: Fuc(a1-3)[Gal(b1-4)]GlcNAc(b1-6)GalNAc
# Procedure, shortened: as §1
# [21] = target: Fuc(a1-3)[Gal(b1-4)]GlcNAc(b1-6)[Gal(b1-3)GlcNAc(b1-3)]Gal(b1-4)Glc
# Procedure, shortened: as §1
# [22] = target: Fuc(a1-3)[Gal(b1-4)]GlcNAc(b1-6)[Neu5Ac(a2-3)Gal(b1-3)]GalNAc
# Procedure, shortened: as §1
# [23] = target: Fuc(a1-3)[Gal(b1-4)]GlcNAc6S
# Procedure, shortened: as §1
# [24] = target: Fuc(a1-3)[Gal3S(b1-4)]GlcNAc
# Procedure, shortened: as §1
# [25] = target: Fuc(a1-3)[Gal3S(b1-4)]GlcNAc6S
# Procedure, shortened: as §1
# [26] = target: Fuc(a1-3)[GalNAc(b1-4)]GlcNAc
# Procedure, shortened: as §1
# Fuc(a1-4)GlcNAc = target: Fuc(a1-4)GlcNAc
# Procedure, shortened: as §1
# Fuc(b1-3)GlcNAc = target: Fuc(b1-3)GlcNAc
# Procedure, shortened: as §1
# Gal(a1-2)Gal = target: Gal(a1-2)Gal
# Procedure, shortened: as §1
# Gal(a1-3)Gal = target: Gal(a1-3)Gal
# Procedure, shortened: as §1
# Gal(a1-3)Gal(b1-3)GlcNAc = target: Gal(a1-3)Gal(b1-3)GlcNAc
# Procedure, shortened: as §1
# [27] = target: Gal(a1-3)Gal(b1-3)GlcNAc(b1-2)Man(a1-3)[Gal(a1-3)Gal(b1-3)GlcNAc(b1-2)Man(a1-6)]Man(b1-4)GlcNAc(b1-4)GlcNAc
# Procedure, shortened: as §1
# [28] = target: Gal(a1-3)Gal(b1-3)GlcNAc(b1-3)GalNAc
# Procedure, shortened: as §1
# [29] = target: Gal(a1-3)Gal(b1-3)[Fuc(a1-4)]GlcNAc(b1-2)Man(a1-3)[Gal(a1-3)Gal(b1-3)[Fuc(a1-4)]GlcNAc(b1-2)Man(a1-6)]Man(b1-4)GlcNAc(b1-4)GlcNAc
# Procedure, shortened: as §1
# Gal(a1-3)Gal(b1-4)Glc = target: Gal(a1-3)Gal(b1-4)Glc
# Procedure, shortened: as §1
# Gal(a1-3)Gal(b1-4)GlcNAc = target: Gal(a1-3)Gal(b1-4)GlcNAc
# Procedure, shortened: as §1
# [30] = target: Gal(a1-3)Gal(b1-4)GlcNAc(b1-3)GalNAc
# Procedure, shortened: as §1
# [31] = target: Gal(a1-3)Gal(b1-4)[Fuc(a1-3)]GlcNAc
# Procedure, shortened: as §1
# [32] = target: Gal(a1-3)Gal(b1-4)[Fuc(a1-3)]GlcNAc(b1-2)Man(a1-3)[Gal(a1-3)Gal(b1-4)[Fuc(a1-3)]GlcNAc(b1-2)Man(a1-6)]Man(b1-4)GlcNAc(b1-4)GlcNAc
# Procedure, shortened: as §1
# Gal(a1-3)GalNAc = target: Gal(a1-3)GalNAc
# Procedure, shortened: as §1
# [33] = target: Gal(a1-3)[Gal(a1-4)]Gal(b1-4)GlcNAc
# Procedure, shortened: as §1
# [34] = target: Gal(a1-4)Gal(b1-3)GlcNAc(b1-2)Man(a1-3)[Gal(a1-4)Gal(b1-3)GlcNAc(b1-2)Man(a1-6)]Man(b1-4)GlcNAc(b1-4)GlcNAc
# Procedure, shortened: as §1
# Gal(a1-4)Gal(b1-4)Glc = target: Gal(a1-4)Gal(b1-4)Glc
# Procedure, shortened: as §1
# Gal(a1-4)Gal(b1-4)GlcNAc = target: Gal(a1-4)Gal(b1-4)GlcNAc
# Procedure, shortened: as §1
binder,measurement,setting,value
B1,glycan array binding signal (z-score),[1],-0.308
same,glycan array binding signal (z-score),[2],-0.305
same,glycan array binding signal (z-score),[3],0.005
same,glycan array binding signal (z-score),[4],1.56
same,glycan array binding signal (z-score),[5],-0.303
same,glycan array binding signal (z-score),[6],-0.235
same,glycan array binding signal (z-score),[7],-0.184
same,glycan array binding signal (z-score),[8],-0.299
same,glycan array binding signal (z-score),[9],0.522
same,glycan array binding signal (z-score),[10],-0.306
same,glycan array binding signal (z-score),[11],-0.306
same,glycan array binding signal (z-score),Fuc(a1-3)GlcNAc,-0.306
same,glycan array binding signal (z-score),[12],-0.293
same,glycan array binding signal (z-score),[13],-0.303
same,glycan array binding signal (z-score),[14],-0.255
same,glycan array binding signal (z-score),[15],0.111
same,glycan array binding signal (z-score),[16],-0.282
same,glycan array binding signal (z-score),[17],-0.206
same,glycan array binding signal (z-score),[18],0.32
same,glycan array binding signal (z-score),[19],-0.251
same,glycan array binding signal (z-score),[20],0.075
same,glycan array binding signal (z-score),[21],-0.303
same,glycan array binding signal (z-score),[22],-0.066
same,glycan array binding signal (z-score),[23],-0.291
same,glycan array binding signal (z-score),[24],-0.305
same,glycan array binding signal (z-score),[25],-0.215
same,glycan array binding signal (z-score),[26],-0.278
same,glycan array binding signal (z-score),Fuc(a1-4)GlcNAc,-0.308
same,glycan array binding signal (z-score),Fuc(b1-3)GlcNAc,-0.304
same,glycan array binding signal (z-score),Gal(a1-2)Gal,-0.303
same,glycan array binding signal (z-score),Gal(a1-3)Gal,-0.306
same,glycan array binding signal (z-score),Gal(a1-3)Gal(b1-3)GlcNAc,-0.296
same,glycan array binding signal (z-score),[27],0.269
same,glycan array binding signal (z-score),[28],-0.047
same,glycan array binding signal (z-score),[29],2.05
same,glycan array binding signal (z-score),Gal(a1-3)Gal(b1-4)Glc,-0.276
same,glycan array binding signal (z-score),Gal(a1-3)Gal(b1-4)GlcNAc,-0.304
same,glycan array binding signal (z-score),[30],-0.278
same,glycan array binding signal (z-score),[31],-0.3
same,glycan array binding signal (z-score),[32],-0.053
same,glycan array binding signal (z-score),Gal(a1-3)GalNAc,-0.303
same,glycan array binding signal (z-score),[33],-0.304
same,glycan array binding signal (z-score),[34],1.42
same,glycan array binding signal (z-score),Gal(a1-4)Gal(b1-4)Glc,-0.304
same,glycan array binding signal (z-score),Gal(a1-4)Gal(b1-4)GlcNAc,-0.306
